# Assay results reported in patent US20190367516A1 (Bayer Pharma Aktiengesellschaft, priority 2015, published 2019).
# Biological target: T1, human M2 receptor (Homo sapiens, UniProt P08172)
# T1 sequence (P08172 1-466): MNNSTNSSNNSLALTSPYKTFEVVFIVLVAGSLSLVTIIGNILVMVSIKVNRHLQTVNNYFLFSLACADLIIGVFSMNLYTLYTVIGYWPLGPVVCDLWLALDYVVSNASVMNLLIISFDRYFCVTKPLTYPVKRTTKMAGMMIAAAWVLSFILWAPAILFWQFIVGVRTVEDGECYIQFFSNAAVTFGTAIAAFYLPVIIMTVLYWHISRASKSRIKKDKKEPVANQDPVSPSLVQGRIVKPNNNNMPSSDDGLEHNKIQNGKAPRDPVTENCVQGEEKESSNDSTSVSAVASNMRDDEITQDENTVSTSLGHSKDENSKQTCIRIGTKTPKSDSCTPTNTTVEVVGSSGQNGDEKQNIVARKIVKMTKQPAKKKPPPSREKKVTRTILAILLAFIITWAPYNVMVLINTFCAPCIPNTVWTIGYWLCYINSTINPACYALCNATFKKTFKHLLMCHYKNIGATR
# Conditions: boosting of the acetylcholine effect at an EC20 acetylcholine concentration; for Emax: read-out: Efficiency, M2-GIRK1/4 activation test
Emax,Efficiency (M2-GIRK1/4 activation test),SMILES
93%,–,"CC(C)CC(NC(=O)c1cn(-c2ccc(F)cc2F)c2nc(NCC(F)F)ccc2c1=O)C(F)(F)F (racemic) [Example 125, rac-7-[(2,2-Difluoroethyl)amino]-1-(2,4-difluorophenyl)-4-oxo-N-[1,1,1-trifluoro-4-methylpentan-2-yl]-1,4-dihydro-1,8-naphthyridine-3-carboxamide]"
82.4%,–,CCC(NC(=O)c1cn(-c2ccc(F)cc2F)c2nc(N3CCCC3=O)ccc2c1=O)C(F)(F)F (centres unmarked) [Example 177]
91.8%,–,"CC(C)CC(NC(=O)c1cn(-c2ccc(F)cc2F)c2nc(N(C)CCF)ccc2c1=O)C(F)(F)F (racemic) [Example 107, rac-1-(2,4-Difluorophenyl)-7-[(2-fluoroethyl)(methyl)amino]-4-oxo-N-[1,1,1-trifluoro-4-methylpentan-2-yl]-1,4-dihydro-1,8-naphthyridine-3-carboxamide]"
100%,–,"O=C(NC(C1CC1)C(F)(F)F)c1cn(-c2c(F)cccc2F)c2nc(N3C[C@@H](O)CC3=O)ccc2c1=O (mixture of isomers) [Example 295, N-[1-Cyclopropyl-2,2,2-trifluoroethyl]-1-(2,6-difluorophenyl)-7-[(4S)-4-hydroxy-2-oxopyrrolidin-1-yl]-4-oxo-1,4-dihydro-1,8-naphthyridine-3-carboxamide]"
88.1%,–,"O=C(NC12CC3CC(CC(C3)C1)C2)c1cn(-c2ccc(F)cc2F)c2nc(N3CCSC3)ccc2c1=O [Example 129, 1-(2,4-Difluorophenyl)-4-oxo-7-(1,3-thiazolidin-3-yl)-N-(tricyclo[3.3.1.1^3,7]dec-1-yl)-1,4-dihydro-1,8-naphthyridine-3-carboxamide]"
97.3%,–,"O=C(NC12CC3CC(CC(C3)C1)C2)c1cn(-c2ccc(F)cc2F)c2nc(N3CCCC(CCO)C3)ccc2c1=O (centres unmarked) [Example 17, 1-(2,4-Difluorophenyl)-7-[3-(2-hydroxyethyl)piperidin-1-yl]-4-oxo-N-(tricyclo[3.3.1.1^3,7]dec-1-yl)-1,4-dihydro-1,8-naphthyridine-3-carboxamide]"
86%,–,"C[C@H](NC(=O)c1cn(-c2c(F)cc(F)cc2F)c2nc(N3CCNC3=O)ccc2c1=O)C(F)(F)F [Example 341, 4-Oxo-7-(2-oxoimidazolidin-1-yl)-1-(2,4,6-trifluorophenyl)-N-[(2S)-1,1,1-trifluoropropan-2-yl]-1,4-dihydro-1,8-naphthyridine-3-carboxamide]"
96%,–,"CC[C@H](NC(=O)c1cn(-c2c(F)cc(F)cc2F)c2nc(N3C[C@@](C)(O)C[C@H]3C)ccc2c1=O)C(F)(F)F [Example 331, 7-[(2R,4S)-4-Hydroxy-2,4-dimethylpyrrolidin-1-yl]-4-oxo-N-[(2S)-1,1,1-trifluorobutan-2-yl]-1-(2,4,6-trifluorophenyl)-1,4-dihydro-1,8-naphthyridine-3-carboxamide]"
97%,–,"CC[C@H](NC(=O)c1cn(-c2c(F)cc(F)cc2F)c2nc(N3CCCN(CCO)C3=O)ccc2c1=O)C(F)(F)F [Example 365, 7-[3-(2-Hydroxyethyl)-2-oxotetrahydropyrimidin-1(2H)-yl]-4-oxo-N-[(2S)-1,1,1-trifluorobutan-2-yl]-1-(2,4,6-trifluorophenyl)-1,4-dihydro-1,8-naphthyridine-3-carboxamide]"
95.7%,–,"CC[C@@H](NC(=O)c1cn(-c2ccc(F)cc2F)c2nc(N3CC(O)C3)ccc2c1=O)C(F)(F)F [Example 261, 1-(2,4-Difluorophenyl)-7-(3-hydroxyazetidin-1-yl)-4-oxo-N-[(2R)-1,1,1-trifluorobutan-2-yl]-1,4-dihydro-1,8-naphthyridine-3-carboxamide]"
94.5%,–,"CCCC(NC(=O)c1cn(-c2ccc(F)cc2F)c2nc(NCCF)ccc2c1=O)C(F)(F)F (racemic) [Example 86, rac-1-(2,4-Difluorophenyl)-7-[(2-fluoroethyl)amino]-4-oxo-N-[(2R)-1,1,1-trifluoropentan-2-yl]-1,4-dihydro-1,8-naphthyridine-3-carboxamide]"
–,99.6%,"O=C(NC(c1ccccc1Cl)C(F)(F)F)c1cn(-c2ccc(F)cc2F)c2nc(N3C[C@@H](O)CC3=O)ccc2c1=O (single isomer, unassigned) [Example 213]"
92.7%,–,"CCCC(NC(=O)c1cn(-c2ccc(F)cc2F)c2nc(N(C)C)ccc2c1=O)C(F)(F)F (racemic) [Example 144, rac-1-(2,4-Difluorophenyl)-7-(dimethylamino)-4-oxo-N-(1,1,1-trifluoropentan-2-yl)-1,4-dihydro-1,8-naphthyridine-3-carboxamide]"
100%,–,"O=C(NC12CC(F)(C1)C2)c1cn(-c2c(F)cc(F)cc2F)c2nc(N3C[C@@H](O)[C@H](O)C3)ccc2c1=O [Example 368, 7-[(3R,4R)-3,4-Dihydroxypyrrolidin-1-yl]-N-(3-fluorobicyclo[1.1.1]pent-1-yl)-4-oxo-1-(2,4,6-trifluorophenyl)-1,4-dihydro-1,8-naphthyridine-3-carboxamide]"
89.7%,–,"CCCC(NC(=O)c1cn(-c2ccc(F)cc2F)c2nc(NCCO)ccc2c1=O)C(F)(F)F (centres unmarked) [Example 81, 1-(2,4-Difluorophenyl)-7-[(2-hydroxyethyl)amino]-4-oxo-N-[1,1,1-trifluoropentan-2-yl]-1,4-dihydro-1,8-naphthyridine-3-carboxamide]"
95%,–,"C[C@H](NC(=O)c1cn(-c2c(F)cccc2F)c2nc(N3C[C@@H](O)CC3=O)ccc2c1=O)C(F)(F)F [Example 329, 1-(2,6-Difluorophenyl)-7-[(4S)-4-hydroxy-2-oxopyrrolidin-1-yl]-4-oxo-N-[(2S)-1,1,1-trifluoropropan-2-yl]-1,4-dihydro-1,8-naphthyridine-3-carboxamide]"
100%,–,"O=C(N[C@@H](C1CC1)C(F)(F)F)c1cn(-c2c(F)cc(F)cc2F)c2nc(N3CCNS3(=O)=O)ccc2c1=O [Example 373, N-[(1 S)-1-Cyclopropyl-2,2,2-trifluoroethyl]-7-(d1,1-dioxido-1,2,5-thiadiazolidin-2-yl)-4-oxo-1-(2,4,6-trifluorophenyl)-1,4-dihydro-1,8-naphthyridine-3-carboxamide]"
97%,–,"CC(NC(=O)c1cn(-c2ccc(F)cc2F)c2nc(N3C[C@@H](O)CC3=O)ccc2c1=O)c1c(F)cccc1F (mixture of isomers) [Example 214, 1-(2,4-Difluorophenyl)-N-[1-(2,6-difluorophenyl)ethyl]-7-[(4S)-4-hydroxy-2-oxopyrrolidin-1-yl]-4-oxo-1,4-dihydro-1,8-naphthyridine-3-carboxamide]"
100%,–,"CC[C@@H](NC(=O)c1cn(-c2c(F)cccc2Cl)c2nc(N3CC[C@@H](O)C3=O)ccc2c1=O)C(F)(F)F [Example 308, 1-(2-Chloro-6-fluorophenyl)-7-[(3R)-3-hydroxy-2-oxopyrrolidin-1-yl]-4-oxo-N-[(2R)-1,1,1-trifluorobutan-2-yl]-1,4-dihydro-1,8-naphthyridine-3-carboxamide]"

SMILES,Emax,Efficiency (M2-GIRK1/4 activation test)
"O=C(NC12CC3CC(CC(C3)C1)C2)c1cn(-c2ccc(F)cc2F)c2nc(N3CCC[C@@H]3CO)ccc2c1=O (racemic) [Example 127, rac-1-(2,4-Difluorophenyl)-7-[2-(hydroxymethyl)pyrrolidin-1-yl]-4-oxo-N-(tricyclo[3.3.1.1^3,7]dec-1-yl)-1,4-dihydro-1,8-naphthyridine-3-carboxamide]",86.5%,–
